Source: US20220112270

Key:
[1] = molecular target: plasma-derived human alpha 1-antitrypsin (AAT), P01009
[2] = molecular target: recombinant human alpha 1-antitrypsin (AAT) derived from recombinant CHO cells

Sequence of plasma-derived human alpha 1-antitrypsin (AAT), P01009 (P01009 whole entry, looked up): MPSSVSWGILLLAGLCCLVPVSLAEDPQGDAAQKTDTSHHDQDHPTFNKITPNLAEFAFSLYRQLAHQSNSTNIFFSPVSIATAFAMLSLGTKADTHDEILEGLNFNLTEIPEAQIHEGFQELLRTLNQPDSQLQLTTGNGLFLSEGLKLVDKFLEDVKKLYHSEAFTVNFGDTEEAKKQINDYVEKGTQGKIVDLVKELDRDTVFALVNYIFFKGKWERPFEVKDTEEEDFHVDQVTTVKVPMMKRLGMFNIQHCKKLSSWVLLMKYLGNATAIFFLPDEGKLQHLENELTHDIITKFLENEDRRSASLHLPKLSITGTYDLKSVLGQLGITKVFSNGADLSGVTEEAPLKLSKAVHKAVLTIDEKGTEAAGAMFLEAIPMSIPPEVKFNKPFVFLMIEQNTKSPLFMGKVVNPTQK

B1: pancreatic elastase (E7885; Sigma Aldrich) (protein)
chain: VVGGTEAQRNSWPSQISLQYRSGSSWAHTCGGTLIRQNWVMTAAHCVDRELTFRVVVGEHNLNQNDGTEQYVGVQKIVVHPYWNTDDVAAGYDIALLRLAQSVTLNSYVQLGVLPRAGTILANNSPCYITGWGLTRTNGQLAQTLQQAYLPTVDYAICSSSSYWGSTVKNSMVCAGGDGVRSGCQGDSGGPLHCLVNGQYAVHGVTSFVSRLGCNVTRKPTVFTRVSAYISWINNVIASN
- elastase activity (conversion of N-succinyl-Ala-Ala-Ala-p-nitroanilide, absorbance at 405 nm) [1]: in both cases of the presence of AAT elastase activity is reduced by about 50%
- elastase activity (conversion of N-succinyl-Ala-Ala-Ala-p-nitroanilide, absorbance at 405 nm) [2]: in both cases of the presence of AAT elastase activity is reduced by about 50%
